The results in this text go back to the supplement of paper PMC7826260.

The list shows a part of the results. Viral Rep nickase domains cut single-stranded DNA in vitro for 1 h at 37 °C with 3 µM enzyme; only the middle of the 90-letter strands is printed. Values are log2 of uncut reads against the no-enzyme pool; uncut sequences lie near 0, cut ones below; no hit call is given. The scaling is to total reads; where an enzyme cuts many sequences, the uncut ones exceed 0.

The subject of the assay is T1, Rep nickase domain of tomato golden mosaic virus.
T1 sequence (residues 1-124 of Rep, tag left off): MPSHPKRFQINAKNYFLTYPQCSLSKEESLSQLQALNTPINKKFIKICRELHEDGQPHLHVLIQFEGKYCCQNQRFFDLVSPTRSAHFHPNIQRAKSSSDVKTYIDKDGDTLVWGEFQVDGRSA
As to the kind of experiment: uncleaved DNA left, log2 of reads against the no-enzyme library (log2 ratio); higher = less cleavage (more negative = more Rep cleavage of the k-mer); sequences stand for … in CTCGTCCG…ACCGGAGA
Here is the method:
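A pool of 90-nt single-stranded DNAs with seven random bases just before the constant AC of the nick site (name = the seven bases) was cut by 3 µM recombinant His6-SUMO-tagged Rep nickase domain (300 nM DNA, 50 mM HEPES pH 8.0, 50 mM NaCl, 1 mM MnCl2, 1 h, 37 °C, three replicates). Uncut DNA was amplified and sequenced.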
GCGAAAC: the “uncleaved DNA left (log2)” value amounted to 0.112.

As for GCAGCTG, the “uncleaved DNA left (log2)” value worked out at 0.0856.

With CCACACT, the “uncleaved DNA left (log2)” value was -0.0862.

Regarding CACGATG, the “uncleaved DNA left (log2)” value is 0.0214.

For AGGGGCG, the “uncleaved DNA left (log2)” value stood at 0.032.

For GGAGCAC, the “uncleaved DNA left (log2)” value came to 0.0963.

For GATGATG, the “uncleaved DNA left (log2)” value stood at 0.137.

Take CGCGAGG: the “uncleaved DNA left (log2)” value was found to be 0.169.

As to GTCCAAG, the “uncleaved DNA left (log2)” value worked out at 0.171.

For ATACCAC, the “uncleaved DNA left (log2)” value is 0.13.

As to CGGGCGT, the “uncleaved DNA left (log2)” value was -0.018.

GCCCGTT: the “uncleaved DNA left (log2)” value is 0.166.

As for GTGGAGC, the “uncleaved DNA left (log2)” value is 0.235.

For ACATTTT, the “uncleaved DNA left (log2)” value is -0.0955.

Consider GAAGTGG, for which the “uncleaved DNA left (log2)” value worked out at 0.0214.

For GTGCAAA, the “uncleaved DNA left (log2)” value is 0.285.

Regarding CAAGCTC, the “uncleaved DNA left (log2)” value is -0.089.

With CAATGGC, the “uncleaved DNA left (log2)” value was -0.104.

As to GACTCGT, the “uncleaved DNA left (log2)” value is 0.0513.

With GAACGAT, the “uncleaved DNA left (log2)” value was determined as 0.051.

Regarding TGTCATC, the “uncleaved DNA left (log2)” value was 0.0815.

Turning to TGCATTA, the “uncleaved DNA left (log2)” value is 0.000804.

As for ATCCCCT, the “uncleaved DNA left (log2)” value was -0.0972.

Take TGCATGG: the “uncleaved DNA left (log2)” value was determined as 0.0173.

Turning to CGACAGA, the “uncleaved DNA left (log2)” value stood at 0.129.

On to TAACGGA, for which the “uncleaved DNA left (log2)” value is 0.0638.

Regarding GCTTTGT, the “uncleaved DNA left (log2)” value is -0.0242.

Turning to TTATGCG, the “uncleaved DNA left (log2)” value was -0.0838.

Consider AGCCCCT, for which the “uncleaved DNA left (log2)” value was -0.268.

On to ATGCATA, for which the “uncleaved DNA left (log2)” value was -0.00347.

In the case of ACCCAAA, the “uncleaved DNA left (log2)” value stood at 0.165.

For GCGAGCG, the “uncleaved DNA left (log2)” value came out at 0.0313.

For the sequence GGAGACT, the “uncleaved DNA left (log2)” value was determined as 0.25.

On to CAAACAA, for which the “uncleaved DNA left (log2)” value turned out to be 0.0428.

Take TCATAAA: the “uncleaved DNA left (log2)” value is 0.0353.

For TCCCCAC, the “uncleaved DNA left (log2)” value turned out to be 0.0293.

As for GGCACCC, the “uncleaved DNA left (log2)” value is -0.109.

With ACAACCT, the “uncleaved DNA left (log2)” value was -0.00895.

CTGGCTA: the “uncleaved DNA left (log2)” value is -0.119.

As to TTAACAC, the “uncleaved DNA left (log2)” value is 0.0309.
